In the supplement of paper PMC8728848:
The other results are listed elsewhere or left out.

Experiments:
Assay in all cases: glycan array binding signal (z-score within array); higher = stronger binding
Details in all cases: glycan notation: IUPAC condensed, linker removed
[1] = biological target: Fuc(a1-3)GlcNAc
In short: (§1)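 Glycan array binding is given as a within-array Z-score, which can be read as non-binding when negative. The arrays, 3228 of them, came from the Consortium for Functional Glycomics database and were retained only where the protein sequence was available. Z-scores were averaged across arrays of the same protein sequence at different concentrations or buffers and across linkers.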

[2] = biological target: Fuc(a1-3)[Gal(b1-4)]Glc6S
In short: as §1

[3] = biological target: Fuc(a1-3)[Gal(b1-4)]GlcNAc
In short: as §1

[4] = biological target: Fuc(a1-3)[Gal(b1-4)]GlcNAc(b1-2)Man
In short: as §1

[5] = biological target: Fuc(a1-3)[Gal(b1-4)]GlcNAc(b1-2)Man(a1-3)[Fuc(a1-3)[Gal(b1-4)]GlcNAc(b1-2)Man(a1-6)]Man(b1-4)GlcNAc(b1-4)GlcNAc
In short: as §1

[6] = biological target: Fuc(a1-3)[Gal(b1-4)]GlcNAc(b1-2)Man(a1-3)[Fuc(a1-3)[Gal(b1-4)]GlcNAc(b1-2)Man(a1-6)]Man(b1-4)GlcNAc(b1-4)[Fuc(a1-6)]GlcNAc
In short: as §1

[7] = biological target: Fuc(a1-3)[Gal(b1-4)]GlcNAc(b1-3)Gal(b1-3)[Fuc(a1-4)]GlcNAc
In short: as §1

[8] = biological target: Fuc(a1-3)[Gal(b1-4)]GlcNAc(b1-3)Gal(b1-4)[Fuc(a1-3)]GlcNAc
In short: as §1

[9] = biological target: Fuc(a1-3)[Gal(b1-4)]GlcNAc(b1-3)Gal(b1-4)[Fuc(a1-3)]GlcNAc(b1-3)Gal(b1-4)[Fuc(a1-3)]GlcNAc
In short: as §1

[10] = biological target: Fuc(a1-3)[Gal(b1-4)]GlcNAc(b1-3)GalNAc
In short: as §1

[11] = biological target: Fuc(a1-3)[Gal(b1-4)]GlcNAc(b1-4)Gal(b1-4)[Fuc(a1-3)]GlcNAc
In short: as §1

[12] = biological target: Fuc(a1-3)[Gal(b1-4)]GlcNAc(b1-4)Gal(b1-4)[Fuc(a1-3)]GlcNAc(b1-4)Gal(b1-4)[Fuc(a1-3)]GlcNAc
In short: as §1

[13] = biological target: Fuc(a1-3)[Gal(b1-4)]GlcNAc(b1-6)GalNAc
In short: as §1

[14] = biological target: Fuc(a1-3)[Gal(b1-4)]GlcNAc(b1-6)[Gal(b1-3)GlcNAc(b1-3)]Gal(b1-4)Glc
In short: as §1

[15] = biological target: Fuc(a1-3)[Gal(b1-4)]GlcNAc6S
In short: as §1

[16] = biological target: Fuc(a1-3)[Gal3S(b1-4)]Glc
In short: as §1

[17] = biological target: Fuc(a1-3)[Gal3S(b1-4)]Glc6S
In short: as §1

[18] = biological target: Fuc(a1-3)[Gal3S(b1-4)]GlcNAc
In short: as §1

[19] = biological target: Fuc(a1-3)[Gal3S(b1-4)]GlcNAc6S
In short: as §1

[20] = biological target: Fuc(a1-3)[GalNAc(b1-4)]Gal(b1-4)GlcNAc
In short: as §1

[21] = biological target: Fuc(a1-3)[GalNAc(b1-4)]GlcNAc
In short: as §1

[22] = biological target: Fuc(a1-3)[GalNAc(b1-4)]GlcNAc6S
In short: as §1

[23] = biological target: Fuc(a1-4)GlcNAc
In short: as §1

[24] = biological target: Fuc(b1-3)GlcNAc
In short: as §1

[25] = biological target: Gal(a1-2)Gal
In short: as §1

[26] = biological target: Gal(a1-3)Gal
In short: as §1

[27] = biological target: Gal(a1-3)Gal(b1-3)Glc
In short: as §1

[28] = biological target: Gal(a1-3)Gal(b1-3)GlcNAc
In short: as §1

[29] = biological target: Gal(a1-3)Gal(b1-3)GlcNAc(b1-2)Man
In short: as §1

[30] = biological target: Gal(a1-3)Gal(b1-3)GlcNAc(b1-2)Man(a1-3)[Gal(a1-3)Gal(b1-3)GlcNAc(b1-2)Man(a1-6)]Man(b1-4)GlcNAc(b1-4)GlcNAc
In short: as §1

[31] = biological target: Gal(a1-3)Gal(b1-3)GlcNAc(b1-3)GalNAc
In short: as §1

[32] = biological target: Gal(a1-3)Gal(b1-3)GlcNAc(b1-6)GalNAc
In short: as §1

[33] = biological target: Gal(a1-3)Gal(b1-3)[Fuc(a1-4)]GlcNAc(b1-2)Man(a1-3)[Gal(a1-3)Gal(b1-3)[Fuc(a1-4)]GlcNAc(b1-2)Man(a1-6)]Man(b1-4)GlcNAc(b1-4)GlcNAc
In short: as §1

[34] = biological target: Gal(a1-3)Gal(b1-4)Glc
In short: as §1

[35] = biological target: Gal(a1-3)Gal(b1-4)GlcNAc
In short: as §1

[36] = biological target: Gal(a1-3)Gal(b1-4)GlcNAc(b1-2)Man
In short: as §1

[37] = biological target: Gal(a1-3)Gal(b1-4)GlcNAc(b1-2)Man(a1-3)[Gal(a1-3)Gal(b1-4)GlcNAc(b1-2)Man(a1-6)]Man(b1-4)GlcNAc(b1-4)GlcNAc
In short: as §1

[38] = biological target: Gal(a1-3)Gal(b1-4)GlcNAc(b1-3)GalNAc
In short: as §1

B1: XL-35 (Xenopus laevis) (protein)
chain: MLVHILLLLVTGGLSQSCDPVVIVASKNMVKQLDCDKFRNCKEIKDSNEEAQDGIYTLTSPDGISYQTFCDMTTNGGGWTLVASVHENNMAGKCTIGDRWSSQQGNRADYPEGDGNWANYNTFGSAGGATSDDYKNPGYYDIEAYNLGVWHVPNKTPLSVWRNSSLQRYRTTDGILFKHGGNLFSLYRIYPVKYGIGSCSKDSGPTVPVVYDLGSANLTASFYSPGFRSQFTPGYIQFRPINTEKAALALCPGMKMESCNVEHVCIGGGGYFPEADPRQCGDFAAYDFNGYGTKKFNSAGIEITEAAVLLFYL
glycan array binding signal (z-score) [1]: -0.189 | glycan array binding signal (z-score) [2]: 0.226 | glycan array binding signal (z-score) [3]: -0.041 | glycan array binding signal (z-score) [4]: 0.263 | glycan array binding signal (z-score) [5]: 0.205 | glycan array binding signal (z-score) [6]: -0.035 | glycan array binding signal (z-score) [7]: -0.053 | glycan array binding signal (z-score) [8]: -0.347 | glycan array binding signal (z-score) [9]: -0.364 | glycan array binding signal (z-score) [10]: 0.349 | glycan array binding signal (z-score) [11]: -0.062 | glycan array binding signal (z-score) [12]: -0.1 | glycan array binding signal (z-score) [13]: -0.005 | glycan array binding signal (z-score) [14]: -0.647 | glycan array binding signal (z-score) [15]: 0.114 | glycan array binding signal (z-score) [16]: -0.097 | glycan array binding signal (z-score) [17]: -0.08 | glycan array binding signal (z-score) [18]: -0.084 | glycan array binding signal (z-score) [19]: -0.029 | glycan array binding signal (z-score) [20]: -0.08 | glycan array binding signal (z-score) [21]: 6.12 | glycan array binding signal (z-score) [22]: -0.423 | glycan array binding signal (z-score) [23]: 0.476 | glycan array binding signal (z-score) [24]: 0.051 | glycan array binding signal (z-score) [25]: -0.152 | glycan array binding signal (z-score) [26]: 0.019 | glycan array binding signal (z-score) [27]: 2.36 | glycan array binding signal (z-score) [28]: -0.289 | glycan array binding signal (z-score) [29]: -0.202 | glycan array binding signal (z-score) [30]: -0.081 | glycan array binding signal (z-score) [31]: -0.401 | glycan array binding signal (z-score) [32]: -0.14 | glycan array binding signal (z-score) [33]: 0.5 | glycan array binding signal (z-score) [34]: 0.121 | glycan array binding signal (z-score) [35]: -0.137 | glycan array binding signal (z-score) [36]: -0.373 | glycan array binding signal (z-score) [37]: 0.152 | glycan array binding signal (z-score) [38]: -0.045
